Measurements from article PMC4336329 (PLoS ONE, 2015).
In all, about 310,000 compounds went through this assay and about 14,000 (4.5%) showed an effect of 50% or more. Effects have a minus sign here. The list shows a part of the results.

Each molecule was assayed against human ether-à-go-go-related gene (hERG) potassium channel (human, UniProt Q12809) (assay: primary screen, population patch clamp on CHO cells stably expressing hERG).
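Further: peak tail current of the secondary pulse compared with the same well before compound.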

Chain of human ether-à-go-go-related gene (hERG) potassium channel (Q12809 whole entry, looked up): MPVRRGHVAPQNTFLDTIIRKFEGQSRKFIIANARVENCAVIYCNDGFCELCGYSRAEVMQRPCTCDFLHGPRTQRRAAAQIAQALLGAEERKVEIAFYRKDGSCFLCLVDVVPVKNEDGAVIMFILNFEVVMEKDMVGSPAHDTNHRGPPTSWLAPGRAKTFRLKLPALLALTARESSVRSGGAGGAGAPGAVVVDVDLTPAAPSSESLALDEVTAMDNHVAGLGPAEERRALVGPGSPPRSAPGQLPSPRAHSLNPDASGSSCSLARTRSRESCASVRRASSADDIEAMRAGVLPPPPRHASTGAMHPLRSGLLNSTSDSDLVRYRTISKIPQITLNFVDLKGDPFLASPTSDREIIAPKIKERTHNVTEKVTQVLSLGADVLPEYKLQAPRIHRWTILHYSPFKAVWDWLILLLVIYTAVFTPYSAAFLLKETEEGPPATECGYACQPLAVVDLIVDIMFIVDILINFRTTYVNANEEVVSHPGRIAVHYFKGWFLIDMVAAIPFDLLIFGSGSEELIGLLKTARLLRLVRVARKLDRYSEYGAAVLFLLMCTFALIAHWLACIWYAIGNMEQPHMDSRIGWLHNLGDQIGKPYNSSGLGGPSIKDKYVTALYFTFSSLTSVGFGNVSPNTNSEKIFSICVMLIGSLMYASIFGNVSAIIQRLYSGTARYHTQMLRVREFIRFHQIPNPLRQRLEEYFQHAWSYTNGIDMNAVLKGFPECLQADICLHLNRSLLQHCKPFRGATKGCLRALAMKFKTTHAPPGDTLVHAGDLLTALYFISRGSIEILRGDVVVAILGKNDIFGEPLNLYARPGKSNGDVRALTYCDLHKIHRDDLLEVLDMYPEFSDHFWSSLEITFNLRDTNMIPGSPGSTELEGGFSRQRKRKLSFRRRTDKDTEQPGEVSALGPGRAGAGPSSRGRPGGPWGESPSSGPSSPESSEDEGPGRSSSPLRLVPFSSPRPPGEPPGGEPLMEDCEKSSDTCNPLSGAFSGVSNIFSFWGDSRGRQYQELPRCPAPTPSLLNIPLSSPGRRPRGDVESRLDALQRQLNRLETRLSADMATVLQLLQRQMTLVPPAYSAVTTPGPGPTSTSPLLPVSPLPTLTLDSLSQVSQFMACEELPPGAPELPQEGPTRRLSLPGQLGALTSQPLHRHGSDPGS

In order of falling “hERG current change (%, negative = inhibition) at 10uM” value:
1. COC(=O)NC1(C(F)(F)F)C(=O)Nc2c1c(=O)n(C)c(=O)n2C (stereo not drawn)  31.3%
2. CCN(CC)N=Nc1ccc(S(=O)(=O)N2CCSC2C(=O)[O-])cc1.[K+] (stereo not drawn)  28.2%
3. CC(=O)Nc1ccc(S(=O)(=O)Nc2ccc3[nH]c(=O)[nH]c3c2)cc1  24.9%
4. CCCCCC/C(C=O)=C\c1ccccc1  24.4%
5. CC(=O)Nc1ccc(Sc2ccccc2C(=O)O)cn1  21.4%
6. CCC(C)C1Nc2ccc(C(=O)NCCc3ccc(OC)c(OC)c3)cc2NC1=O (stereo not drawn)  20.4%
7. Cc1cc(Nc2c(C)n(C)n(-c3ccccc3)c2=O)n2c(nc3cc(F)c(F)cc32)c1C#N  19.2%
8. CNc1cc(C)nc(N2CCOCC2)n1  19.1%
9. Nc1[nH]c(=S)[nH]c(=O)c1-c1ccccc1  14.5%
10. CCOC(=O)N/N=C(\CCC(=O)O)c1cccs1  14.5%
11. CCn1ccc(C(=O)Nc2ccc(N(C)C(C)=O)cc2)n1  14%
12. CCc1nnc(NC(=O)CSc2nnc(CNc3ccc(OC)cc3)n2C)s1  13.4%
13. CNc1cnn(-c2ccc(C)cc2)c(=O)c1Cl  13.2%
14. Cc1ccc(S(=O)(=O)N2CCC(C(=O)N[C@H](C(=O)N3CCN(C)CC3)C(C)C)CC2)cc1  10.8%
15. O=C1N=C(N2CCCCC2)S/C1=C\c1ccc(Cl)cc1  9.15%
16. O=C1CC(c2ccccc2)CC(O)=C1C=Nc1ccccc1Cl (stereo not drawn)  8.85%
17. CCC(C)[C@H](NC(=O)N1CC(=O)Nc2ccccc21)C(=O)N[C@H](C(=O)O)c1ccccc1 (stereo partly drawn)  7.19%
18. O=C(NC(NC(=S)Nc1ccccc1C(=O)O)C(Cl)(Cl)Cl)c1ccco1 (stereo not drawn)  6.85%
19. NC(CO)C(O)c1ccc([N+](=O)[O-])cc1 (stereo not drawn)  5.02%
20. COc1ccc(OCC(=O)NCC(c2cccs2)N2CCOCC2)cc1 (stereo not drawn)  4.86%
21. CC(=O)c1c(Cl)nc2cccc3c2c1-c1ccccc1C3=O  4.8%
22. COC(=O)c1c(NC(=O)/C=C/c2ccc3c(c2)OCO3)sc(C)c1C  4.75%
23. CCC(=O)NC1(C(F)(F)F)C(=O)NC(C)=C1C#N (stereo not drawn)  4.2%
24. CCC1=C(OC(=O)N(CC)CC)N2C(=O)OC(=NCC3CC3)[C@]2(C)[C@H]2C1=CC[C@H]1C(=O)NC(=O)[C@H]12  3.99%
25. CC(=O)c1c(C)[nH]c(C(=O)OCC(=O)Nc2cc(S(=O)(=O)N3CCCCC3)ccc2C)c1C  3.32%
26. COc1cc(NC(=O)N2CCOCC2)cc(OC)c1  2.6%
27. CN(C)CCNC(=O)C(=O)c1c(-c2ccccc2)cc2ccccn12  1.93%
28. O=C1CCC(C(=O)N2CCC(O)CC2)CN1CCc1ccc(Cl)cc1 (stereo not drawn)  1.38%
29. CC1(C)Cc2c(sc(NC(=O)COc3ccc(Cl)cc3)c2C(N)=O)C(C)(C)N1  0.951%
30. COc1cc(/C=C2/C(=N)N3C=CSC3=NC2=O)ccc1OCCCOc1c(C)cccc1C  -0.849%
31. Cn1c2ccccc2n2c(=O)c(=O)n(CC(=O)c3ccc(Cl)cc3)nc12  -0.966%
32. Cc1cc(-c2ccc(C(C)C)c(S(=O)(=O)N3CC(=O)Nc4ccccc43)c2)on1  -1.21%
33. Cc1ccc(S(=O)(=O)Oc2ccc(/C=N/NC(=O)c3nn(C)cc3[N+](=O)[O-])cc2)cc1  -1.82%
34. CCc1ccc2oc(=O)cc(CN3CCC(C)CC3)c2c1  -2.21%
35. CCn1c(COc2ccccc2C)nnc1SCC(=O)NC1CCCC1  -2.89%
36. O=C(COc1ccc2c(-c3ccccc3)cc(=O)oc2c1)N[C@H](Cc1c[nH]c2ccccc12)C(=O)O  -3.06%
37. COc1ccc(CC(=O)Nc2cc(C)c3c(=O)oc4ccccc4c3n2)cc1  -4.96%
38. CCN(Cc1cc2ccccc2[nH]c1=O)S(=O)(=O)c1ccccc1  -6.48%
39. Cc1ccc(C)c(NC(=S)N2CCC(NC(=O)c3ccco3)CC2)c1  -8.35%
40. N#CCCN(C(=O)CN1CCN(S(=O)(=O)c2ccc3c(c2)OCCO3)CC1)c1ccc(F)cc1  -8.83%
41. Nc1cc(Cl)c2nonc2c1[N+](=O)[O-]  -8.96%
42. O=C(NN=C1c2ccccc2-c2ccccc21)c1ccccc1  -10.6%
43. CC(C)(C)c1ccc(C(=O)NCCCNC(=O)c2ccco2)cc1  -10.8%
44. O=C(NCc1ccccc1Cl)C1=CC=CN2CCS(=O)(=O)N=C12  -11.1%
45. COc1ccc(CCNC(=O)CN(C)S(=O)(=O)c2ccc(OC)cc2)cc1  -11.4%
46. Cc1ccc(C)c(OCCC(=O)NNC(=O)c2cc(C)oc2C)c1  -12.1%
47. Cc1cccc(/C(N)=N/OC(=O)c2ccco2)c1  -12.1%
48. Cc1csc(NC(=O)c2ccc(COc3ccccc3)o2)n1  -17.7%
49. CN(C)c1nccc(NCc2ccccc2)c1C#N  -22.1%
50. CN(C)CCNC(=O)C(c1ccccc1)c1ccccc1  -28.3%
51. CCN(CC)CCCN=Cc1c(O)n(-c2c(C)cccc2C)c(=O)c2ccccc12  -34.2%
52. O=C(NCc1ccco1)C(=O)NCC1OCCN1S(=O)(=O)c1ccc(Br)cc1 (stereo not drawn)  -36.6%
53. Clc1ccccc1CSc1nnc(-c2cccnc2)n1Cc1ccco1  -43.1%
54. COc1cccc(C(=O)COc2cccc(NC(=O)c3ccco3)c2)c1  -44%
55. Cc1cc(N2CCN(S(=O)(=O)Cc3ccccc3)CC2)n2ncnc2n1  -46.1%
56. Cc1cccc(-c2nc(CN3CCN(Cc4cccc(F)c4)CC3)c(C)o2)c1  -47%
57. O=C(N/N=C(\c1ccccc1)c1cccnc1)c1cccc(F)c1  -61.5%
